For 172 sequences, binding signal results are on record in article PMC10668032.

Some of the results follow. At the low end of the ranking the order means little.

The assay concerns the target SIX1 homeodomain (reference allele) (UniProt Q15475). The assay can be described thus: universal protein binding microarray. Conditions: Universal all-10-mer PBM (8x60K, AMADID 030236), 300 nM GST-tagged protein, Alexa Fluor 488 anti-GST; buffer, salt, pH and temperature not stated; high values mean tight binding; most listed sequences are background and not binding sites; double strand, one strand shown.
Turning to AACACAAA, the binding signal is -0.114 E-score.

In the case of AAGGCATT, the binding signal was -0.0818 E-score.

As to GAACATCC, the binding signal was -0.0366 E-score.

With GGCGAGAA, the binding signal was -0.0165 E-score.

For CCTTCTCG, the binding signal was 0.111 E-score.

As for CGGCAACC, the binding signal is -0.111 E-score.

As for ACTTGTAT, the binding signal was 0.246 E-score.

For the sequence GAATACCC, the binding signal turned out to be 0.368 E-score.

CTTAATTC: the binding signal is -0.0274 E-score.

For TAGCATAA, the binding signal is -0.0723 E-score.

With GTTACTAA, the binding signal was -0.105 E-score.

On to AATCGTCA, for which the binding signal is -0.0123 E-score.

As for CCGGAGAA, the binding signal is -0.0972 E-score.

GGAGACGA: the binding signal was 0.149 E-score.

GCTGATCA: the binding signal came to 0.198 E-score.

CTTTACGC: the binding signal was -0.158 E-score.

On to GACTTTGA, for which the binding signal was -0.193 E-score.

Regarding CGCCAAGA, the binding signal is -0.154 E-score.

In the case of CGTGTGAG, the binding signal came to 0.0774 E-score.

For the sequence CAAGTAGC, the binding signal is -0.221 E-score.

On to CGTTTTGC, for which the binding signal was -0.212 E-score.

For CATCGTAC, the binding signal was -0.0388 E-score.

Turning to AAACTTTG, the binding signal is -0.263 E-score.

With AATCTCTG, the binding signal was -0.0279 E-score.

Regarding AAACCCAG, the binding signal turned out to be 0.0877 E-score.

In the case of CGACACCG, the binding signal was 0.427 E-score.

Take GATTATGA: the binding signal was 0.205 E-score.

For AGTAGTAA, the binding signal is -0.145 E-score.

Consider CCCGCACC, for which the binding signal was 0.0198 E-score.

Regarding AGACTATG, the binding signal is -0.00755 E-score.

On to ATGGGGCG, for which the binding signal was found to be 0.14 E-score.

For the sequence CCTAAGCA, the binding signal came out at 0.0158 E-score.

Take GATCAGTA: the binding signal stood at 0.347 E-score.

As for AGCCCCAG, the binding signal is 0.0605 E-score.

As to GAAGTACA, the binding signal was -0.0881 E-score.

Consider AATGCTAA, for which the binding signal was -0.213 E-score.

Turning to CGTTGAGC, the binding signal is -0.0841 E-score.

AATTTCGC: the binding signal is -0.246 E-score.

As to TAGCACGA, the binding signal is -0.0903 E-score.

As to CAACAGTG, the binding signal is -0.0138 E-score.

CCGTATAA: the binding signal came to 0.226 E-score.

CTAAGTTA: the binding signal came out at 0.0331 E-score.

With CTTACTCC, the binding signal worked out at 0.0264 E-score.

As for AGAAGGAA, the binding signal is -0.0959 E-score.

Regarding AAAGATCA, the binding signal was determined as 0.234 E-score.

With AGGGAACC, the binding signal was -0.13 E-score.

For the sequence ACTCAACC, the binding signal is -0.0536 E-score.

For the sequence CGCTCAAC, the binding signal is -0.0776 E-score.

As for GGGGATAA, the binding signal stood at 0.311 E-score.

On to GGACCTGA, for which the binding signal was -0.255 E-score.

As to CGCTGTTC, the binding signal was -0.198 E-score.

Turning to CCGACTGC, the binding signal is -0.188 E-score.

As to GGCGCGAA, the binding signal is -0.0838 E-score.

On to CAAATTTG, for which the binding signal is -0.173 E-score.

For the sequence ATCTACGC, the binding signal is 0.138 E-score.

On to CCTGCAGG, for which the binding signal came to 0.0238 E-score.

As to AGGGAACA, the binding signal is -0.228 E-score.

In the case of CCGTCTCG, the binding signal was 0.232 E-score.

As for ACTTAGCA, the binding signal was -0.197 E-score.

On to AACGCTTG, for which the binding signal is -0.164 E-score.

As to ACCATAGC, the binding signal came out at 0.0297 E-score.

As to TCTCGTCA, the binding signal was determined as 0.0727 E-score.

As to CCCCGCCA, the binding signal came out at 0.161 E-score.

As for ACCAATAA, the binding signal is -0.163 E-score.

Regarding AACCAATC, the binding signal stood at 0.0242 E-score.

Regarding CGCAACAG, the binding signal is -0.143 E-score.

As for GTATATAA, the binding signal is 0.245 E-score.

With CCAAACCG, the binding signal is -0.0953 E-score.

On to CACGAGAC, for which the binding signal worked out at 0.0598 E-score.

With GGATGTTA, the binding signal was -0.0502 E-score.

Regarding CGCTGGAC, the binding signal was -0.254 E-score.

With CCCACGGC, the binding signal is -0.105 E-score.

In the case of AAGGGTAG, the binding signal was -0.102 E-score.

ACGCACCG: the binding signal was -0.148 E-score.

Consider AGGTCAGA, for which the binding signal was -0.128 E-score.

In the case of CAAGGGCC, the binding signal was -0.304 E-score.

As to GCCAACGA, the binding signal was -0.238 E-score.

Regarding GAAAAAAC, the binding signal was -0.333 E-score.

For TAGCCCTA, the binding signal was 0.0195 E-score.

In the case of CAAGTCCG, the binding signal is -0.178 E-score.

Regarding CGACCATA, the binding signal came to 0.133 E-score.

GAATTAAA: the binding signal was -0.208 E-score.

AGCTAGCC: the binding signal was -0.14 E-score.

For AGAGCTAT, the binding signal came out at 0.00301 E-score.

For CTTAGTTA, the binding signal turned out to be 0.0232 E-score.

As for ATATGGCG, the binding signal was found to be 0.223 E-score.

On to AAAACGTC, for which the binding signal was -0.259 E-score.

AGGGCATA: the binding signal was 0.168 E-score.

In the case of AAATTAGA, the binding signal is -0.206 E-score.

For the sequence GAAGTGGA, the binding signal amounted to 0.0844 E-score.

As to AATCCGCA, the binding signal was 0.204 E-score.

For CGGCTAGC, the binding signal worked out at 0.0102 E-score.

Turning to AAACACTC, the binding signal was -0.235 E-score.

On to ACGAATCT, for which the binding signal is -0.0936 E-score.

On to AAGAATAG, for which the binding signal is 0.0297 E-score.

Consider ACTGACCG, for which the binding signal is -0.174 E-score.

AATTGACT: the binding signal is -0.183 E-score.

GGCTGTTA: the binding signal is -0.168 E-score.

Take AAGATTAC: the binding signal was -0.131 E-score.

For GCAGAGAA, the binding signal was -0.159 E-score.

As to CGAAGCCG, the binding signal was -0.0368 E-score.

TCTGCGAA: the binding signal is -0.28 E-score.

As to AAAATTGG, the binding signal is -0.257 E-score.

Consider ACACATGT, for which the binding signal is -0.149 E-score.

As to GCCGTTAA, the binding signal is -0.119 E-score.

Turning to AAGAGAGG, the binding signal is -0.013 E-score.

For GTGCCGAA, the binding signal is -0.142 E-score.

As to AGCCGTCG, the binding signal is -0.135 E-score.

As for CGCTTCCG, the binding signal was -0.0888 E-score.

For the sequence ACTCGGGG, the binding signal was 0.212 E-score.

Turning to AATCTCGT, the binding signal is -0.129 E-score.

On to TGATGTAA, for which the binding signal is -0.0238 E-score.

As for TAGGACTA, the binding signal was -0.0513 E-score.

In the case of AGGAACGG, the binding signal was -0.035 E-score.

As for CATTTCCA, the binding signal was -0.239 E-score.

Regarding CCTCTCAC, the binding signal stood at 0.125 E-score.

As to GAAGGAGC, the binding signal was -0.117 E-score.

Consider CTTTGCCA, for which the binding signal was -0.276 E-score.

For the sequence AGGCGGAG, the binding signal was 0.0721 E-score.

On to CTGACTAC, for which the binding signal was -0.152 E-score.

Regarding CGTGCTCC, the binding signal is -0.166 E-score.

As for AGTCCGGA, the binding signal was -0.0309 E-score.

Regarding CGACCAGA, the binding signal is -0.00464 E-score.

AAATCAGG: the binding signal is -0.0954 E-score.

GACGATAA: the binding signal amounted to 0.0255 E-score.

Take CGGCTGCC: the binding signal is 0.103 E-score.

With ACTTCTCC, the binding signal turned out to be 0.00191 E-score.

Regarding AACGGGGC, the binding signal was -0.116 E-score.

As to AGCATCAT, the binding signal stood at 0.126 E-score.

In the case of CCGCGGTA, the binding signal worked out at 0.194 E-score.

Regarding ACAGGACG, the binding signal was -0.287 E-score.

Regarding GCTGCGCA, the binding signal was -0.187 E-score.

On to ACCCTAAG, for which the binding signal is -0.00327 E-score.

In the case of GTATACAA, the binding signal worked out at 0.252 E-score.

On to CCCATGTA, for which the binding signal is -0.000915 E-score.

Consider AACAGCAT, for which the binding signal was -0.18 E-score.

In the case of CGCACCAA, the binding signal is -0.221 E-score.

For GGATTTGA, the binding signal worked out at 0.0254 E-score.

Turning to AGCGCGCT, the binding signal was -0.151 E-score.

Take CCCACCAG: the binding signal is -0.023 E-score.

Regarding ATGTCTCA, the binding signal amounted to 0.2 E-score.

AGTCTGTA: the binding signal is -0.199 E-score.

For the sequence GAGGGCCC, the binding signal is -0.205 E-score.

Regarding CGCTATGC, the binding signal came to 0.00308 E-score.

Consider GCCAGTCA, for which the binding signal is -0.125 E-score.

For the sequence CACCTGTC, the binding signal was 0.12 E-score.

For the sequence GATGAACC, the binding signal amounted to 0.0931 E-score.

Regarding GCTCCTCA, the binding signal is -0.114 E-score.

As for CCATGTTA, the binding signal is -0.217 E-score.

Turning to GAGTTCTA, the binding signal was -0.135 E-score.

Consider GCTACGCA, for which the binding signal amounted to 0.0407 E-score.

Take ATGTGTTG: the binding signal was -0.0829 E-score.

For the sequence CATCGTTA, the binding signal was -0.0426 E-score.

AGGCTCTG: the binding signal is -0.154 E-score.

Consider CGCCGTAA, for which the binding signal is -0.067 E-score.

For the sequence ACATCCCA, the binding signal is -0.0313 E-score.

CCATTACA: the binding signal is 0.0309 E-score.

ACGATACA: the binding signal was 0.369 E-score.

In the case of CTGAGAAC, the binding signal came out at 0.142 E-score.

With ATGCTAAT, the binding signal is -0.0759 E-score.

As to AAGATCGA, the binding signal turned out to be 0.0954 E-score.

For TCACAAGA, the binding signal was -0.0623 E-score.

Turning to CAAGAGGC, the binding signal is -0.371 E-score.

In the case of GTACTGCA, the binding signal came to 0.00817 E-score.

Take ATGTGGCG: the binding signal is -0.192 E-score.

Turning to CGATAACC, the binding signal amounted to 0.233 E-score.

Regarding CGTTTGCA, the binding signal was found to be 0.0549 E-score.

As to ATCCAACG, the binding signal came out at 0.124 E-score.

Regarding CGCTAACG, the binding signal was -0.091 E-score.

Take GAACGAAA: the binding signal is -0.218 E-score.

For the sequence AGGGTGGA, the binding signal worked out at 0.0328 E-score.

Take CGAATGAG: the binding signal was 0.00757 E-score.
